Measurements taken from PubChem BioAssay AID1476 (National Center for Advancing Translational Sciences (NCATS), 2009).
“And” between values parts separate entries of the source, which are not always exact repeats. Equal entries are not always repeated. Hit rate of the full screen: of about 200,000 compounds, about 4,500 (2.2%) were called active. This list was built around the results that the source calls inconclusive (neither active nor inactive); the mix of calls is not that of the screen. Calls follow the shape of the dose curve; as a rule, active = well fitted inhibition curve with a large enough effect; inconclusive = small, poorly fitted or top-dose-only effect, or effect the other way; inactive = flat fitted curve, though single readings scatter. Where the call is inconclusive, the potency comes from a doubtful curve fit.
Also: nearly all actives have a fitted effect of over 40% in size.
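For max response, negative = inhibition in this document: plate controls were enzyme without inhibitor for no effect and buffer without enzyme for full effect.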
Potency is read from the fitted curve at half-maximal effect; tags tell the direction and shape of the fitted curve.

Each compound was assayed against Cruzipain (Trypanosoma cruzi) (UniProt P25779) (assay: qHTS Assay for Promiscuous and Specific Inhibitors of Cruzain (without detergent)). Conditions: purified cruzain, Z-FR-AMC fluorescence, no detergent.
Sequence of UniProt P25779 (P25779 whole entry, looked up): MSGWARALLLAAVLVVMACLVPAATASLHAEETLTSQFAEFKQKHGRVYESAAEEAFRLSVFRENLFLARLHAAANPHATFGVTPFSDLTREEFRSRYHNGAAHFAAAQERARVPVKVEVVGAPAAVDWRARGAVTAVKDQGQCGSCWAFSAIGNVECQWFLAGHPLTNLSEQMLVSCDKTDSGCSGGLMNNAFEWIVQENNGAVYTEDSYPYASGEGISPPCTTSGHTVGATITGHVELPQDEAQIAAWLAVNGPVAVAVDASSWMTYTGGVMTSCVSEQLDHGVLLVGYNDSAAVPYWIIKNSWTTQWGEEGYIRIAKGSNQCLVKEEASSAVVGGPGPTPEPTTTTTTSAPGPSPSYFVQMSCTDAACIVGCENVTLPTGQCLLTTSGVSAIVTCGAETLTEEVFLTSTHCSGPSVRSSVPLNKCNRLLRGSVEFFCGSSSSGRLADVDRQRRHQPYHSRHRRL
Summary of the method: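 Detergent-free condition (0.00005% Triton X-100) in acetate buffer pH 5.5 with DTT. 1.5 nM enzyme and compound were pre-mixed 15 min, then 2 uM Z-FR-AMC substrate added; reaction progress from fluorescence change between first and third reads (60 s).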
In the case of Cc1ccc(Cl)cc1NC(=O)Nc1cn(CC(C)C)c(=O)c2ccccc12, the max response, negative = inhibition is reported as inactive: 0.189%. For CC#C[C@@]1(O)CC[C@H]2[C@@H]3CCC4=CC(=O)CCC4=C3[C@H](c3ccc(N(C)C)cc3)C[C@]21C, the max response, negative = inhibition was inactive: 4.15%. For Cc1ccccc1CN1C(=O)c2ccccc2Sc2ccc(C(=O)NCc3ccccc3)cc21, the Potency was active: 31.6 µM. In the case of CCCCc1ccc(C2C(C#N)=C(N)SC(N)=C2C#N)s1, the Potency is reported as active: 31.6 µM. For CCN(CCCNC(=O)c1cc(Nc2ccc(OC)cc2)nc2ccccc12)c1cccc(C)c1, the Potency was inconclusive: 39.8 µM [inhibitor, single point]. With COc1ccc(-c2nn(-c3ccccc3)cc2/C=N/NC(=O)c2ccc3c(c2)OCO3)cc1 the Potency was inconclusive: 25.1 µM [inhibitor, single point]. With CCOc1ccc(S(=O)(=O)Nc2ccc3c(c2)OCO3)c2cccnc12 the Potency was inconclusive: 31.6 µM [inhibitor, single point]. In the case of CN1C2CC(OC(=O)C(CO)c3ccccc3)C[C@@H]1[C@H]1OC21 (some centres not stated), the max response, negative = inhibition is reported as inactive: 8.56%. CN1CCN(C(=O)c2ccccc2NC(=O)c2cccs2)CC1 was tested, and the max response, negative = inhibition was inactive: -0.425%. Cc1cc(C)c2[nH]c(=O)c(CN(CC3CCCO3)S(=O)(=O)c3ccc4c(c3)OCCO4)cc2c1 (configuration not stated) was tested, and the Potency was inconclusive: 31.6 µM [activator, single point]. O=C1CN(C(=O)COc2ccccc2)C(c2ccc(F)cc2)c2cc(Br)ccc2N1 (configuration not stated) was tested, and the max response, negative = inhibition was inactive: -15.4%. In the case of C[C@@H]1O[C@H](O[C@@H]2[C@H](C)O[C@H](O[C@@H]3[C@H](C)O[C@H](O[C@H]4CC[C@]5(C)[C@@H](CC[C@@H]6[C@H]5C[C@@H](O)[C@]5(C)[C@@H](C7=CC(=O)OC7)CC[C@]65O)C4)C[C@@H]3O)C[C@@H]2O)C[C@H](O)[C@@H]1O, the Potency is reported as inconclusive: 12.6 µM [activator, partial curve]. In the case of COc1ccc(-c2nn(-c3ccc(F)cc3)c3c2cnc2ccc(F)cc23)cc1OC, the max response, negative = inhibition is reported as inactive: 4.57%. With Cc1ccc2[nH]c(=O)c3cc(C(=O)N(CCCOC(C)C)Cc4ccco4)sc3c2c1 the Potency was inconclusive: 31.6 µM [activator, single point] and inconclusive: 25.1 µM [activator, single point]. With COC(=O)c1c(NC(=O)CSc2nnnn2-c2ccccc2)sc2c1CCC(C(C)(C)C)C2 (configuration not stated) the Potency was active: 6.31 µM. Cc1ccc(OCc2nc(C#N)c(NCCc3ccccc3)o2)cc1 was tested, and the Potency was inconclusive: 15.8 µM [inhibitor, partial curve]. In the case of CCOC(=O)CSc1nc2ccc(N3CCOCC3)cc2c(=O)n1Cc1ccc2c(c1)OCO2, the Potency is reported as inconclusive: 39.8 µM [activator, single point]. For CCn1c(NCc2cc(Br)ccc2NS(=O)(=O)c2ccc(C)cc2)nc2ccccc21, the Potency was inconclusive: 31.6 µM [inhibitor, single point]. CN(Cc1ccccc1)c1ccc(-c2nc(-c3ccccc3)no2)cc1[N+](=O)[O-] was tested, and the max response, negative = inhibition was inactive: -0.924%. For Cc1ccc(CNC(=O)c2cc3c(-c4ccc(Cl)cc4)nn(C)c3s2)o1, the max response, negative = inhibition was inactive: -10.1%. Cc1cc(C)c(NC(=O)C(=O)NCC(c2cccnc2)N2CCN(c3ccccc3F)CC2)c(C)c1 (configuration not stated) was tested, and the max response, negative = inhibition was inactive: -10.2%. For C=CCc1ccccc1OCC(=O)N/N=C/c1ccc(OC(C)=O)cc1OC(C)=O, the Potency was inconclusive: 31.6 µM [activator, single point]. COc1ccccc1N1CCN(C(=O)c2cc(-c3cccc(Cl)c3)on2)CC1 was tested, and the Potency was inconclusive: 25.1 µM [activator, partial curve]. In the case of COc1ccc(NC(=O)c2oc3ccccc3c2NC(=O)c2cc(C)cc(C)c2)c(OC)c1, the max response, negative = inhibition is reported as inactive: -11.1%. In the case of CN1CCN(S(=O)(=O)c2cccc(C(=O)Nc3sc4c(c3C(N)=O)CCCC4)c2)CC1, the Potency is reported as active: 12.6 µM. For COC(=O)c1c(-c2cccs2)csc1NC(=O)c1cccnc1, the Potency was inconclusive: 39.8 µM [activator, single point]. Cc1cc2oc(C(=O)N(Cc3ccc(N(C)C)cc3)CC3CCCO3)c(C)c2cc1Cl (configuration not stated) was tested, and the max response, negative = inhibition was inactive: -6.83%. For Cc1ccc(C)c(NC(=O)CCC(=O)NNC(=O)C(c2ccccc2)c2ccccc2)c1, the Potency was inconclusive: 39.8 µM [inhibitor, single point]. COC(=O)C1C(=O)C2=C(CC1C)NC(C)=C(C(=O)OC1CCCCC1)C2c1ccc(N(C)C)cc1 (configuration not stated) was tested, and the Potency was inconclusive: 25.1 µM [activator, single point]. In the case of CN1CCN(C2=C(Cl)C(=O)N(c3cccc(Cl)c3)C2=O)CC1, the Potency is reported as inconclusive: 31.6 µM [inhibitor, single point]. In the case of COc1ccccc1NC(=O)CSc1nc2c(oc3ccccc32)c(=O)n1-c1ccccc1F, the max response, negative = inhibition is reported as inactive: -5.06%. In the case of Cc1nc(-c2cccc(NC(=O)c3cc4cc(Br)ccc4oc3=O)c2)cs1, the Potency is reported as inconclusive: 7.94 µM [inhibitor, full curve, poor fit].
